Results as given in the supplement of paper PMC8728848.
This is one part of the list.

Columns and labels:
Assay in all cases: glycan array binding signal (z-score within array); higher = stronger binding
Conditions in all cases: glycan notation: IUPAC condensed, linker removed
[1] = biological target: GlcNAc(b1-4)GlcNAc(b1-4)GlcNAc(b1-4)GlcNAc(b1-4)GlcNAc(b1-4)GlcNAc
How it was run: (§1)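 The binding signal is a Z-score computed within each array and averaged over linkers. Arrays of the same protein sequence at different concentrations or buffers were also averaged together. Data originate from 3228 arrays in the Consortium for Functional Glycomics database, kept only where the protein sequence was available.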

[2] = biological target: GlcNAc(b1-4)[GlcNAc(b1-6)]GalNAc
How it was run: as §1

[3] = biological target: GlcNAc(b1-6)Gal(b1-4)GlcNAc
How it was run: as §1

GlcNAc(b1-6)GalNAc = biological target: GlcNAc(b1-6)GalNAc
How it was run: as §1

[4] = biological target: GlcNAc6S(b1-3)Gal(b1-4)GlcNAc
How it was run: as §1

Kdn(a2-3)Gal(b1-3)GalNAc = biological target: Kdn(a2-3)Gal(b1-3)GalNAc
How it was run: as §1

Kdn(a2-3)Gal(b1-3)GlcNAc = biological target: Kdn(a2-3)Gal(b1-3)GlcNAc
How it was run: as §1

Kdn(a2-3)Gal(b1-4)Glc = biological target: Kdn(a2-3)Gal(b1-4)Glc
How it was run: as §1

Kdn(a2-3)Gal(b1-4)GlcNAc = biological target: Kdn(a2-3)Gal(b1-4)GlcNAc
How it was run: as §1

[5] = biological target: Kdn(a2-3)Gal(b1-4)[Fuc(a1-3)]GlcNAc
How it was run: as §1

Kdn(a2-6)Gal(b1-4)GlcNAc = biological target: Kdn(a2-6)Gal(b1-4)GlcNAc
How it was run: as §1

[6] = biological target: Man(a1-2)Man(a1-2)Man(a1-3)Man
How it was run: as §1

[7] = biological target: Man(a1-2)Man(a1-2)Man(a1-6)[Man(a1-3)]Man
How it was run: as §1

Man(a1-2)Man(a1-3)Man = biological target: Man(a1-2)Man(a1-3)Man
How it was run: as §1

[8] = biological target: Man(a1-2)Man(a1-3)[Man(a1-2)Man(a1-6)]Man
How it was run: as §1

[9] = biological target: Man(a1-2)Man(a1-3)[Man(a1-2)Man(a1-6)]Man(a1-6)[Man(a1-2)Man(a1-2)Man(a1-3)]Man
How it was run: as §1

[10] = biological target: Man(a1-2)Man(a1-3)[Man(a1-2)Man(a1-6)]Man(a1-6)[Man(a1-2)Man(a1-2)Man(a1-3)]Man(b1-4)GlcNAc(b1-4)GlcNAc
How it was run: as §1

[11] = biological target: Man(a1-2)Man(a1-3)[Man(a1-6)]Man(a1-6)[Man(a1-2)Man(a1-3)]Man(b1-4)GlcNAc(b1-4)GlcNAc
How it was run: as §1

[12] = biological target: Man(a1-2)Man(a1-6)[Man(a1-3)]Man(a1-6)[Man(a1-2)Man(a1-2)Man(a1-3)]Man
How it was run: as §1

[13] = biological target: Man(a1-2)Man(a1-6)[Man(a1-3)]Man(a1-6)[Man(a1-2)Man(a1-2)Man(a1-3)]Man(b1-4)GlcNAc(b1-4)GlcNAc
How it was run: as §1

Man(a1-3)[Man(a1-6)]Man = biological target: Man(a1-3)[Man(a1-6)]Man
How it was run: as §1

[14] = biological target: Man(a1-3)[Man(a1-6)]Man(a1-6)[Man(a1-2)Man(a1-3)]Man(b1-4)GlcNAc(b1-4)GlcNAc
How it was run: as §1

[15] = biological target: Man(a1-3)[Man(a1-6)]Man(a1-6)[Man(a1-3)]Man
How it was run: as §1

[16] = biological target: Man(a1-3)[Man(a1-6)]Man(a1-6)[Man(a1-3)]Man(b1-4)GlcNAc(b1-4)GlcNAc
How it was run: as §1

[17] = biological target: Man(a1-3)[Man(a1-6)]Man(b1-4)GlcNAc(b1-4)GlcNAc
How it was run: as §1

[18] = biological target: Man(a1-3)[Man(a1-6)]Man(b1-4)GlcNAc(b1-4)[Fuc(a1-6)]GlcNAc
How it was run: as §1

Man(a1-6)Man = biological target: Man(a1-6)Man
How it was run: as §1

Man(b1-4)GlcNAc = biological target: Man(b1-4)GlcNAc
How it was run: as §1

MurNAc(b1-4)GlcNAc = biological target: MurNAc(b1-4)GlcNAc
How it was run: as §1

Neu5Ac(a2-3)Gal = biological target: Neu5Ac(a2-3)Gal
How it was run: as §1

[19] = biological target: Neu5Ac(a2-3)Gal(b1-3)GalNAc
How it was run: as §1

[20] = biological target: Neu5Ac(a2-3)Gal(b1-3)GalNAc(b1-3)Gal(a1-4)Gal(b1-4)Glc
How it was run: as §1

[21] = biological target: Neu5Ac(a2-3)Gal(b1-3)GalNAc(b1-4)[Neu5Ac(a2-3)]Gal(b1-4)Glc
How it was run: as §1

[22] = biological target: Neu5Ac(a2-3)Gal(b1-3)GalNAc(b1-4)[Neu5Ac(a2-8)Neu5Ac(a2-3)]Gal(b1-4)Glc
How it was run: as §1

[23] = biological target: Neu5Ac(a2-3)Gal(b1-3)GalNAc6S
How it was run: as §1

[24] = biological target: Neu5Ac(a2-3)Gal(b1-3)GlcNAc
How it was run: as §1

[25] = biological target: Neu5Ac(a2-3)Gal(b1-3)GlcNAc(b1-2)Man
How it was run: as §1

B1: PX9961U-pdi-543-24-543 (Parabacteroides distasonis) (protein)
chain: EEPVGEFLPGQVESEENIEGIVTGAYAVLDGYYASDAINSGCSNWQFGDVVSDDAYKGGGGTGDQNQIHLMEIFNANPTGIDFEARWAALYEGIKRCNQAIRLLNGSEVKNKEQRLAEMRFLRGHYYFNLKIIYNQIPWIDETLVDPNEYNKKSNIEFSSDQLWEKILEEFSAAYKVLPESQADYGRPTKMAARAYMAKVYLYQSKWKECLEACDEVIQSGKYELFPDFRNVFLPENDNCSEIIFAIQLSINDGSPNNENGSYGDRLLPPGGPYPVYGFLRPTQNLVNAYKTDVKGLPYNDGKDVSENDYVDVRLDHTLARPNIPFMDVQLYDWTPREASVYGPYSPKKRLVSLNSTYYSPIWPYVNALNFYVIRYADLLLWRAEAAIETGDLETGRKYINMIRERAKNTQHVKTMDQSQDAANYKVGVYDEPFKSKNEAVQALRMERRLEMAHEGIRFFDLVRWGVADEVINAYIAKEKVFRSHLQNAHFVKGKHEYFPIPQSMIDICGTEVMKQNPGY
glycan array binding signal (z-score) [1]: -0.419 | glycan array binding signal (z-score) [2]: -0.436 | glycan array binding signal (z-score) [3]: -0.084 | glycan array binding signal (z-score) (GlcNAc(b1-6)GalNAc): 0.008 | glycan array binding signal (z-score) [4]: 0.286 | glycan array binding signal (z-score) (Kdn(a2-3)Gal(b1-3)GalNAc): 0.638 | glycan array binding signal (z-score) (Kdn(a2-3)Gal(b1-3)GlcNAc): -0.426 | glycan array binding signal (z-score) (Kdn(a2-3)Gal(b1-4)Glc): -0.227 | glycan array binding signal (z-score) (Kdn(a2-3)Gal(b1-4)GlcNAc): -0.432 | glycan array binding signal (z-score) [5]: 0.924 | glycan array binding signal (z-score) (Kdn(a2-6)Gal(b1-4)GlcNAc): -0.416 | glycan array binding signal (z-score) [6]: -0.441 | glycan array binding signal (z-score) [7]: -0.333 | glycan array binding signal (z-score) (Man(a1-2)Man(a1-3)Man): -0.489 | glycan array binding signal (z-score) [8]: -0.393 | glycan array binding signal (z-score) [9]: -0.429 | glycan array binding signal (z-score) [10]: -0.408 | glycan array binding signal (z-score) [11]: -0.302 | glycan array binding signal (z-score) [12]: -0.388 | glycan array binding signal (z-score) [13]: -0.45 | glycan array binding signal (z-score) (Man(a1-3)[Man(a1-6)]Man): -0.227 | glycan array binding signal (z-score) [14]: 6.64 | glycan array binding signal (z-score) [15]: -0.096 | glycan array binding signal (z-score) [16]: -0.352 | glycan array binding signal (z-score) [17]: -0.44 | glycan array binding signal (z-score) [18]: -0.45 | glycan array binding signal (z-score) (Man(a1-6)Man): -0.267 | glycan array binding signal (z-score) (Man(b1-4)GlcNAc): -0.381 | glycan array binding signal (z-score) (MurNAc(b1-4)GlcNAc): -0.427 | glycan array binding signal (z-score) (Neu5Ac(a2-3)Gal): -0.402 | glycan array binding signal (z-score) [19]: -0.406 | glycan array binding signal (z-score) [20]: -0.277 | glycan array binding signal (z-score) [21]: -0.397 | glycan array binding signal (z-score) [22]: -0.366 | glycan array binding signal (z-score) [23]: -0.437 | glycan array binding signal (z-score) [24]: -0.408 | glycan array binding signal (z-score) [25]: -0.309
